Values joined by “and” are separate entries in the source; they are usually repeats but may differ in a detail not shown here. Identical values can stand only once. This continues a long series; more values of the same kind are listed elsewhere.
Legend:
[1] = xn = mol fraction of the nth substance listed

CO
Details | viscosity
293.15 K, 101.3 kPa | 0.5811 mPa·s and 0.587 mPa·s
293.15 K, 101.33 kPa | 0.587 mPa·s and 0.5 mPa·s and 0.586 mPa·s
298 K, 100 kPa | 0.534 mPa·s
298.15 K, 101 kPa | 0.5702 mPa·s and 0.538 mPa·s and 0.5379 mPa·s
298.15 K, 101.3 kPa | 0.542 mPa·s and 0.5422 mPa·s and 0.554 mPa·s
303 K, 101 kPa | 0.501 mPa·s
303.15 K, 100 kPa | 0.505 mPa·s
303.15 K, 101.3 kPa | 0.5028 mPa·s and 0.511 mPa·s and 0.5 mPa·s
303.2 K, 101.33 kPa | 0.497 mPa·s
308.15 K, 101.3 kPa | 0.474 mPa·s and 0.4694 mPa·s and 0.46 mPa·s
308.15 K, 101.31 kPa | 0.469 mPa·s
311 K, 101.3 kPa | 0.4603 mPa·s
318 K, 101.3 kPa | 0.4345 mPa·s
318 K, 101.33 kPa | 0.4345 mPa·s
318.15 K, 101 kPa | 0.38 mPa·s and 0.4545 mPa·s and 0.4256 mPa·s
318.15 K, 101.3 kPa | 0.41 mPa·s
318.15 K, 101.31 kPa | 0.411 mPa·s
318.15 K, 101.33 kPa | 0.453 mPa·s
319 K, 101.3 kPa | 0.4116 mPa·s
323.1 K, 101.33 kPa | 0.3927 mPa·s
323.15 K, 101.3 kPa | 0.393 mPa·s and 0.4 mPa·s
323.15 K, 101.33 kPa | 0.43 mPa·s and 0.399 mPa·s and 0.416 mPa·s

CCCCCC
viscosity
Details | 298.1 K | 298.15 K | 303.15 K | 308.15 K | 313 K | 313.15 K | 318.15 K | 323 K | 323.15 K
101 kPa | 0.316 mPa·s and 0.316 mPa·s | 0.2958 mPa·s and 0.308 mPa·s and 0.299 mPa·s | 0.294 mPa·s and 0.285 mPa·s and 0.3177 mPa·s | 0.281 mPa·s and 0.273 mPa·s | – | 0.26 mPa·s | 0.249 mPa·s | – | 0.238 mPa·s
101.33 kPa | – | – | – | – | 0.2649 mPa·s | – | – | 0.2418 mPa·s | –

CC#N
viscosity [mPa·s]
Details | 293.15 K | 298.15 K | 303.15 K | 308.15 K | 313.15 K | 318.15 K | 323.15 K
101 kPa | – | 0.345 | 0.3322 | 0.3124 | – | – | –
101.3 kPa | 0.35 | 0.333 | – | 0.292 | 0.279 | 0.245 | 0.223

CC#N + CC(C)O
[1], 313.15 K, 101.3 kPa
Details | viscosity [mPa·s]
x1 = 0.3855 | 0.5
x1 = 0.4939 | 0.427
x1 = 0.5942 | 0.389
x1 = 0.6871 | 0.348
x1 = 0.7736 | 0.317
x1 = 0.8541 | 0.296
x1 = 0.9295 | 0.294

CC#N + O
[1], 323.15 K, 101 kPa
Details | viscosity [mPa·s]
x1 = 0.065 | 0.5847
x1 = 0.084 | 0.5863
x1 = 0.1498 | 0.5689
x1 = 0.2534 | 0.5199
x1 = 0.3831 | 0.4458
x1 = 0.5071 | 0.3857
x1 = 0.6075 | 0.355
x1 = 0.7039 | 0.3239
x1 = 0.8042 | 0.3012
x1 = 0.894 | 0.287

CC#N + CO
viscosity [mPa·s], [1]
Details | 298.15 K | 303.15 K | 308.15 K | 313.15 K | 318.15 K
101.3 kPa, x1 = 0.0798 | 0.504 | 0.47 | 0.44 | 0.416 | –
101.3 kPa, x1 = 0.1633 | 0.462 | 0.432 | 0.404 | 0.384 | –
101.3 kPa, x1 = 0.2507 | 0.424 | 0.398 | 0.373 | 0.354 | –
101.3 kPa, x1 = 0.3423 | 0.394 | 0.37 | 0.348 | 0.33 | –
101.3 kPa, x1 = 0.4384 | 0.373 | 0.351 | 0.33 | 0.314 | –
101.3 kPa, x1 = 0.5393 | 0.359 | 0.338 | 0.318 | 0.304 | –
101.3 kPa, x1 = 0.6455 | 0.349 | 0.329 | 0.312 | 0.297 | –
101.3 kPa, x1 = 0.7574 | 0.344 | 0.328 | 0.308 | 0.293 | –
101.3 kPa, x1 = 0.8754 | 0.343 | 0.326 | 0.307 | 0.292 | –
101.33 kPa, x1 = 0.5496 | – | – | – | – | 0.294
101.33 kPa, x1 = 0.5999 | – | – | – | – | 0.289
101.33 kPa, x1 = 0.6494 | – | – | – | – | 0.285
101.33 kPa, x1 = 0.6997 | – | – | – | – | 0.282
101.33 kPa, x1 = 0.745 | – | – | – | – | 0.28
101.33 kPa, x1 = 0.7995 | – | – | – | – | 0.28
101.33 kPa, x1 = 0.8496 | – | – | – | – | 0.281
101.33 kPa, x1 = 0.8998 | – | – | – | – | 0.281
101.33 kPa, x1 = 0.95 | – | – | – | – | 0.284

CC#N + CCCCO
viscosity [mPa·s], [1], 101.3 kPa
Details | x1 = 0.1671 | x1 = 0.311 | x1 = 0.4362 | x1 = 0.5462 | x1 = 0.6436 | x1 = 0.7303 | x1 = 0.8082 | x1 = 0.8784 | x1 = 0.942
308.15 K | – | – | – | – | – | – | – | 0.347 | 0.314
313.15 K | 1.071 | 0.777 | 0.598 | 0.487 | 0.423 | 0.384 | 0.346 | 0.332 | 0.301

CC#N + CCCO
[1], 313.15 K, 101.3 kPa
Details | viscosity [mPa·s]
x1 = 0.3856 | 0.587
x1 = 0.4939 | 0.496
x1 = 0.5945 | 0.433
x1 = 0.6887 | 0.39
x1 = 0.7735 | 0.362
x1 = 0.8539 | 0.341
x1 = 0.9294 | 0.32
